# Source: PubChem BioAssay AID485294 (National Center for Advancing Translational Sciences (NCATS), 2010)
# Hit rate of the full screen: of about 370,000 compounds, about 150 (0.041%) were called active. This list was built around the results that the source calls inconclusive (neither active nor inactive); the mix of calls is not that of the screen. Calls come from the whole dose curve; as a rule, active = well fitted inhibition curve with a large enough effect; inconclusive = small, poorly fitted or top-dose-only effect; inactive = flat fitted curve, though single readings scatter. No potency is given beside an inconclusive call; the fits are too rough.
# Molecular target: Beta-lactamase (Escherichia coli (strain K12)) (UniProt P00811)
# Sequence of UniProt P00811 (P00811 whole entry, looked up): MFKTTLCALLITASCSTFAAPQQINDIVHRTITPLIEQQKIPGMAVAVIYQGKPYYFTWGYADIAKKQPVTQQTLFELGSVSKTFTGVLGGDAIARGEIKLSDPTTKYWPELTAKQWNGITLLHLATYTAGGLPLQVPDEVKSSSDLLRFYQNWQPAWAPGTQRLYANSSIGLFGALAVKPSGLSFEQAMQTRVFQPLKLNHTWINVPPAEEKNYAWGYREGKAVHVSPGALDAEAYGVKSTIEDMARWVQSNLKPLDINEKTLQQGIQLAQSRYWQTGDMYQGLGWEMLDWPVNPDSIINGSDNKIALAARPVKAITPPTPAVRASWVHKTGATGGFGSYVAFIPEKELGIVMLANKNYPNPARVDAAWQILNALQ
# Assay: qHTS Inhibitors of AmpC Beta-Lactamase (assay with detergent); note: nearly all actives have a fitted effect of over 25% in size;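 for activity change, negative = inhibition: 0% = no-compound wells and -100% = no-enzyme wells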
# Conditions: AmpC hydrolysis of nitrocefin, absorbance 480 nm, 0.01% Triton; activity change, negative = inhibition: at 114 µM (top of the series)
# In short: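 20 mM phosphate pH 7.0 + 0.01% (detergent screen) or 0.0001% Triton X-100; 5.3 nM AmpC reagent; cpd preinc 15 min RT; nitrocefin (800 uM stock) to start; A480 q20 s × 4 min; Activity was normalised to no-enzyme and no-compound control wells.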
# Potency is the fitted concentration of half-maximal effect; tags give direction and shape of the fitted curve.
SMILES,Potency,"activity change, negative = inhibition"
CCCc1nc(SCC(=O)Nc2nccs2)c2ccccc2n1,"inconclusive [inhibitor, full curve, poor fit]",–
COc1ccc(NC(=O)c2cc(S(=O)(=O)NCCC3=CCCCC3)ccc2F)cc1,–,inactive: 8.57%
O=C(Cn1cnnn1)NC1CCCN(Cc2ccccc2F)C1 (configuration not stated),"inconclusive [inhibitor, full curve, poor fit]",–
CCOC(=O)c1sc(NC(=O)CCCn2nc([N+](=O)[O-])cc2C)c(C(=O)OCC)c1C,"inconclusive [inhibitor, partial curve, poor fit]",–
C/C(=N/n1cnnc1)c1cccnc1,"inconclusive [inhibitor, single point]",–
O=C(NCc1ccc2c(c1)OCO2)C1CC(c2ccc(Cl)cc2)=NO1 (configuration not stated),"inconclusive [inhibitor, single point]",–
Cc1ccc(C(=O)O)cc1NC(=S)NC(=O)c1ccc(-c2ccccc2)cc1,–,inactive: 6.03%
Cc1sc2ncnc(NCCCn3ccnc3)c2c1C,"inconclusive [inhibitor, full curve]",–
CNc1nc(OC)nc(N2CCOCC2)n1,"inconclusive [inhibitor, full curve, poor fit]",–
CNC(=O)c1cc(OCC(F)(F)F)ccc1OCC(F)(F)F,"inconclusive [inhibitor, full curve, poor fit]",–
Cc1cnn(C(=S)NCCc2ccccc2)c1,"inconclusive [inhibitor, full curve, poor fit]",–
COc1ccc(Cl)cc1-c1nc(-c2ccc(NC(=O)c3cccs3)cc2)no1,"inconclusive [inhibitor, single point]",–
O=C(Nc1ccccc1-c1nc2ccccc2[nH]1)c1ccc(S(=O)(=O)N2CCCCC2)cc1,"inconclusive [inhibitor, full curve]",–
COc1cc(NC(=S)NN2CCN(C)CC2)cc(OC)c1,"inconclusive [inhibitor, full curve, poor fit]",–
C=CCN(CC=C)C(=S)NC(=O)c1ccc(OC)c(Br)c1,"inconclusive [inhibitor, partial curve, poor fit]",–
Cc1noc(/C=C/N(C)C)c1S(=O)(=O)N1CCCC(C(=O)NCCC2=CCCCC2)C1 (configuration not stated),"inconclusive [inhibitor, partial curve]",–
Cc1ccc(NC(=O)CCn2c(=O)c3cccn3c3ccccc32)c(C)c1,"inconclusive [inhibitor, single point]",–
Cc1cc(C)c2sc(N(Cc3cccnc3)C(=O)CCOc3ccccc3)nc2c1,–,inactive: -1.24%
C=CCOC(=O)Cn1cnc2c(sc3nc(C)cc(C)c32)c1=O,–,inactive: 9.85%
CC1=CC(C)(C)N(S(=O)(=O)c2ccc(C)cc2)c2ccccc21,"inconclusive [inhibitor, full curve, poor fit]",–
NC(=S)Nc1cccc2cn[nH]c12,"inconclusive [inhibitor, full curve, poor fit]",–

SMILES,Potency,"activity change, negative = inhibition"
Cc1cccn2c(=O)nc(SCC(=O)c3ccc(Cl)cc3)nc12,"inconclusive [inhibitor, full curve, poor fit]",–
Cc1cc(NC(=O)CSc2ccc3nnc(-c4cccc(F)c4)n3n2)no1,–,inactive: 0.289%
COc1ccccc1CN1C(=O)[C@@H]2C(CCC(N)=O)NC3(C(=O)Nc4c3ccc(Cl)c4C)[C@@H]2C1=O (some centres not stated),"inconclusive [inhibitor, full curve, poor fit]",–
COC(=O)C(NC(=O)c1ccco1)(Nc1cc(C)ccn1)C(F)(F)F (configuration not stated),"inconclusive [inhibitor, partial curve, poor fit]",–
O=C(CC(Nc1ccccc1Cl)C(=O)O)c1ccccc1 (configuration not stated),–,inactive: 6.55%
COc1cccc(N(C(=O)c2ccco2)C(C(=O)NC2CCCC2)c2ccc(N3CCOCC3)cc2)c1 (configuration not stated),–,inactive: -5.45%
c1ccc(-n2ncc3c(N4CCN(c5ccccn5)CC4)nc(N4CCCCC4)nc32)cc1,"inconclusive [inhibitor, full curve, poor fit]",–
O=c1ccc(S(=O)(=O)N2CCCC2)cn1Cc1ccc(Cl)cc1Cl,"inconclusive [inhibitor, full curve, poor fit]",–
O=C(COC(=O)c1ccc(Oc2ccccc2)cc1)Nc1nnc(-c2ccccc2)o1,"inconclusive [inhibitor, partial curve, poor fit]",–
O=C1OC(Nc2ccc(F)cc2F)c2ccccc21 (configuration not stated),"inconclusive [inhibitor, partial curve, poor fit]",–
Cc1ccc(C2CC(C(F)(F)F)n3nc(C(=O)NCc4c(C)nn(C)c4C)c(Cl)c3N2)cc1 (configuration not stated),–,inactive: -15.1%
Nc1c(C(=O)Nc2ccc3c(c2)OCCO3)nnn1Cc1ccc(Br)cc1,"inconclusive [inhibitor, full curve]",–
CCOC(=O)c1c(C)n(C)c2ccc(OCC(O)CN3CCN(C)CC3)cc12 (configuration not stated),"inconclusive [inhibitor, full curve, poor fit]",–
COc1ccccc1CNC(=O)c1cnc2c(-c3ccccc3)c(C)nn2c1C,–,inactive: -2.21%
Cc1ccc(N2CC(=O)N(NC(=O)c3sc4nc(C)cc(C)c4c3N)CC2=O)cc1,–,inactive: 7.84%
CC(=O)c1cccc(S(=O)(=O)N2CCn3cccc3C2C)c1 (configuration not stated),"inconclusive [inhibitor, full curve, poor fit]",–
CSc1n[nH]c(NC2=CC(=O)CCC2)n1,"inconclusive [inhibitor, full curve, poor fit]",–
Cc1ccccc1NC(=O)C1CCCN(S(=O)(=O)c2cnc[nH]2)C1 (configuration not stated),"inconclusive [inhibitor, full curve, poor fit]",–
CCOc1ccc(NC(=O)CCN2C(=O)c3ccccc3C2=O)cc1,"inconclusive [inhibitor, full curve, poor fit]",–
CCCCS(=O)(=O)c1oc(-c2ccc(F)cc2)nc1S(=O)(=O)c1ccccc1,–,inactive: -3.33%
C=CCC1NCCc2c(Br)cccc21 (configuration not stated),"inconclusive [inhibitor, single point]",–
